This note sets out measurements from PubChem BioAssay AID463173 (ICCB-Longwood Screening Facility, Harvard Medical School, 2010).

About 4,300 (8.3%) of roughly 52,000 compounds were called active. Rule as the data show it: active = survival mostly below about 52% (no sharp cut-off); inactive = mostly above about 56%. This is one part of the list.

This test concerns DeltatarO mutant. In words: growth inhibition of S. aureus wild type versus tarO mutant, primary screen, teichoic acid synthesis inhibitors, RN4220, OD600 (AID 463173). To be noted: OD600, 18 h, active compounds read low, screened at 18.75 µg/mL (by protocol).
With `Cc1cccc(NC(=O)c2ccc3snnc3c2)c1`, the survival was inactive: 108%.

Regarding `Cc1ccc2nc(-c3ccc(Cl)c(NC(=O)COc4cccc(C)c4C)c3)oc2c1`, the survival was active: 48%.

As to `Cc1ccc2[nH]c(=O)c(CNCCCN(C)C)cc2c1`, the survival was inactive: 83%.

Consider `Cc1ccc(NC(=O)C2CCCN(c3nnc(-n4c(C)ccc4C)s3)C2)c(C)c1` (stereo not given), for which the survival was inactive: 100%.

As to `N#Cc1ccccc1Cn1c(=O)n(CCCC(=O)NCc2ccc3c(c2)OCO3)c(=O)c2sccc21`, the survival is inactive: 146%.

Regarding `Cc1ccn2c(=O)cc(COc3ccc(NC(=O)COc4ccc(Cl)cc4)cc3)nc2c1`, the survival is inactive: 95%.

Consider `CCCN(CCC)C(=O)Cn1c(=O)n(-c2cccc(OC)c2)c(=O)c2c3c(sc21)CCCC3`, for which the survival was inactive: 93%.

For the compound `CCCC(C(=O)NCc1cccc(Cl)c1)N1Cc2ccccc2C1=O` (stereo not given), the survival is inactive: 102%.

As for `O=C(CCCCn1c(=O)c2ccccc2n(Cc2ccccc2Cl)c1=O)NCCc1ccccc1`, the survival is inactive: 117%.

Turning to `Cc1onc2c1C(=O)CC(C)(C)C2`, the survival is inactive: 73%.

`CCc1nnc(SCC(=O)Nc2ccccc2Cl)nc1CC`: the survival is inactive: 80%.

Turning to `CC(C)COc1ccc(C(=O)NCC2(N3CCN(C)CC3)CCCCC2)cc1`, the survival was inactive: 80%.

As for `CCc1ccc2ncc3c(-c4ccccc4)nn(-c4ccccc4)c3c2c1`, the survival was active: 5%.

As to `COCCNC(=O)Cn1nc(C)c2c(C)n(-c3ccc(C)cc3)nc2c1=O`, the survival is inactive: 135%.

As to `CCc1ccc(NCc2cc3cc4c(cc3n(CC(=O)Nc3cccc(OC)c3)c2=O)OCO4)cc1`, the survival was inactive: 93%.

In the case of `Cc1cc(C)n2nc(C(=O)N/N=C/c3ccncc3)nc2n1`, the survival was inactive: 76%.

With `Cc1cc(NS(=O)(=O)c2ccc(NC(=O)c3ccccc3C)cc2)nc(C)n1`, the survival was inactive: 93%.

In the case of `COc1cccc(NC(=O)CSc2nnc3scc(-c4ccc(Cl)cc4)n23)c1`, the survival was inactive: 52%.

Turning to `Cc1ccc(C)c(NC(=O)CC2NCCNC2=O)c1` (stereo not given), the survival is inactive: 79%.

Regarding `CC1=C(C#N)C(NC(=O)c2ccccc2Cl)(C(F)(F)F)C(=O)N1` (stereo not given), the survival is inactive: 132%.

Consider `CCc1ccc(NC(=O)c2sc3nc(C)c(Cl)c(C)c3c2NC(=O)c2ccccc2OC)cc1`, for which the survival is inactive: 130%.

As to `CCCCSc1nnc(-c2ccc3[nH]c(C)c(C)c3c2)o1`, the survival was inactive: 75%.

With `COc1ccc(OC)c(NC(=O)C2=C(C)C(=O)OC23CCCCCC3)c1`, the survival is inactive: 131%.

`Cc1ccc(S(=O)(=O)c2nnn3c2nc(N2CCN(c4ccccc4F)CC2)c2cc(Cl)ccc23)cc1C`: the survival was inactive: 82%.

On to `COc1ccc(/C=C/C(=O)Nc2ccc3nc4c(c(Nc5ccccc5OC)c3c2)CCCC4)cc1`, for which the survival is inactive: 65%.

Regarding `O=C(c1ccc2c(c1)N(Cc1cccc(F)c1)C(=O)c1ccccc1S2)N1CCOCC1`, the survival was inactive: 86%.

Regarding `CC(=O)N1c2c(cc(Br)cc2S(=O)(=O)N2CCN(c3cc(C)ccc3C)CC2)CC1C` (stereo not given), the survival is inactive: 78%.

In the case of `Cc1ccccc1CN1C(=O)c2ccccc2S(=O)c2ccc(C(=O)NC3CCC(C)CC3)cc21` (stereo not given), the survival was inactive: 101%.

As for `Cc1ccc(S(=O)(=O)c2nnn3c2nc(N2CCCC2)c2sccc23)cc1C`, the survival was inactive: 48%.

For `COc1ccc(CNc2nc3c(-c4cccc(C)c4)nnn3c3ccccc23)cc1`, the survival was inactive: 85%.

Consider `CCOc1ccc(NC(=O)c2cnc(N3CCCC3)nc2C)cc1`, for which the survival is inactive: 98%.

Take `Cc1nn(CC(=O)N2CCC(C)CC2)c(=O)c2cc3sccc3n12`: the survival was inactive: 90%.

In the case of `CCOc1ccc(CCNC(=O)c2cn(C)c3ccc(S(=O)(=O)N4CCCCCC4)cc3c2=O)cc1OCC`, the survival is inactive: 61%.

Take `CC(C)c1ccc(NC(=O)Cn2cc(S(=O)(=O)N3CCN(c4ccccc4F)CC3)c3ccccc3c2=O)cc1`: the survival was inactive: 92%.

Consider `CCOC(=O)c1c(C)[nH]c(C)c1S(=O)(=O)N(C)CC(=O)N1CCN(c2ccccc2)CC1`, for which the survival was inactive: 65%.

As for `COc1ccccc1NC(=O)c1c(NCc2ccc(OC)c(OC)c2OC)sc2c1CCC2`, the survival is inactive: 82%.

Consider `Cc1ccc(CN(C(=O)COc2ccc([N+](=O)[O-])cc2)c2ccccn2)cc1`, for which the survival is inactive: 49%.

For `CCN(CC)CCCNC(=O)c1cn(C)c2ccc(S(=O)(=O)N(C)C3CCCCC3)cc2c1=O`, the survival was inactive: 129%.

Consider `CCN(CC)CCCNC(=O)c1cnc(SC)nc1-c1ccccc1`, for which the survival was inactive: 69%.

For the compound `CN1CCN(C(=O)c2ccc(-c3ccccc3)cc2)CC1`, the survival was inactive: 83%.

For the compound `Cc1ccc2c(=O)cc(C(=O)Nc3nc4ccc(Cl)cc4s3)oc2c1C`, the survival is active: 39%.

As for `CCOCCc1nn2c(=O)cc(COC(=O)CNC(=O)c3cccc(C)c3)nc2s1`, the survival is inactive: 70%.

In the case of `O=C(COc1ccc(Cl)cc1)Nc1nnc(S(=O)(=O)N2CCc3ccccc32)s1`, the survival was active: 6%.

On to `COc1cccc(-c2ncnn2-c2sc3c(c2C#N)CCCCC3)c1OC`, for which the survival was inactive: 86%.

For the compound `CCN(C(=O)CSc1nc2ncccc2[nH]1)c1ccc(C(C)C)cc1`, the survival is active: 43%.

Turning to `CC(C)(C)OC(=O)N1CCC(c2c(C(=O)NCCN3CCc4ccccc4C3)cnn2-c2ccc(F)cc2F)CC1`, the survival was inactive: 70%.

As for `Cc1ccc(CN2CCC(CNC(=O)Nc3ccc(Cl)cc3)C2)cc1` (stereo not given), the survival is inactive: 60%.

For the compound `CCC(=O)N1CCc2cc(Br)cc(S(=O)(=O)CCC(=O)NCCc3cccc(C)c3)c21`, the survival was inactive: 63%.

As for `Cc1ccc(NC(=O)CCn2c(=O)c3cccn3c3ccccc32)cc1C`, the survival was active: 46%.

With `Cc1ccc(-n2c(=O)c3cccnc3n2CC(=O)Nc2ccc(Br)cc2)cc1C`, the survival is inactive: 40%.

Consider `Cc1cc(Cl)ccc1OCc1nc(-c2ccc(-n3cccc3)cc2)no1`, for which the survival is inactive: 162%.

For `COC(=O)C1=C(C)OC(N)=C(C#N)C1c1ccco1` (stereo not given), the survival is inactive: 93%.

As for `CCCCOC(=O)c1ccc(NC(=O)c2cc3c(=O)n4cccc(C)c4nc3s2)cc1`, the survival was inactive: 66%.

For `CCOc1ccc(N2CC(c3nc4ccccc4n3CCCOc3ccccc3)CC2=O)cc1` (stereo not given), the survival is inactive: 51%.

On to `Cc1c(C(=O)NCC(c2ccc(Cl)cc2)N2CCOCC2)oc2ccccc12` (stereo not given), for which the survival was inactive: 72%.

On to `CCCNC(=O)CCc1nnc2ccc(N3CCN(c4cccc(OC)c4)CC3)nn12`, for which the survival is inactive: 98%.

For `CCCCN(C)CCNC(=O)c1c2c(nc3ccccc13)C(=O)N(C1CCCCC1)C2`, the survival is inactive: 102%.

As to `COc1ccccc1N1CCN(C(=O)c2nc(SC)ncc2Cl)CC1`, the survival is inactive: 85%.

On to `COc1ccc(C)cc1NC(=O)CCS(=O)(=O)c1cc2c3c(c1)CCN3C(=O)CC2`, for which the survival is inactive: 85%.

As for `CCOc1ccc(Oc2nc(NCC(C)C)nc(N3CCOCC3)n2)nn1`, the survival is inactive: 79%.

`CC(Oc1ccc(F)cc1)C(=O)N1CCC(c2nc3ccccc3s2)CC1` (stereo not given): the survival is inactive: 58%.

For the compound `N#Cc1c(NC(=O)COC(=O)c2cccs2)sc2c1CCC2`, the survival is inactive: 94%.

`Cn1ncc2c(N3CCN(c4cccc(Cl)c4)CC3)ncnc21`: the survival is inactive: 73%.

For `CCOC(=O)N1CCc2c(sc(NCc3sccc3C)c2C(=O)Nc2ccc(OC)cc2OC)C1`, the survival is inactive: 94%.

With `Cc1cc(C)cc(NC(=O)C(Cc2ccccc2)NS(=O)(=O)c2ccc3c(c2)c(=O)n(C)c(=O)n3C)c1` (stereo not given), the survival was inactive: 57%.

For the compound `O=C(Cn1c(=O)nc(-c2ccccc2)c2ccccc21)NCc1ccc(Cl)cc1`, the survival was inactive: 90%.

Consider `CCc1ccc(NC(=O)CCn2nc(C)c(S(=O)(=O)N3CCCCC3)c2C)cc1`, for which the survival is inactive: 128%.

For the compound `COc1ccc(Cl)cc1C(=O)N1CCCC1`, the survival is inactive: 100%.

Take `Cc1cc(C)cc(NC(=O)C(=O)NCC(c2cccnc2)N2CCc3ccccc3C2)c1` (stereo not given): the survival was inactive: 73%.

On to `CCCCNC(=O)C1CCC(Cn2c(=O)c3sccc3n(CC(=O)N3CCCC3)c2=O)CC1` (stereo not given), for which the survival is inactive: 112%.

In the case of `NS(=O)(=O)c1ccc(NC(=O)C2CCCO2)cc1` (stereo not given), the survival is inactive: 95%.

Regarding `CCN1CCN(C(=O)c2ccc(S(=O)(=O)N(CC)CC)cc2)CC1`, the survival was inactive: 85%.

In the case of `O=C(Nc1cc(C(F)(F)F)ccc1Cl)c1nc2ccccc2nc1N1CCCCC1`, the survival is inactive: 85%.

In the case of `CCc1ccccc1NC(=O)c1sc2nc3c(cc2c1N)CN(Cc1ccccc1)CC3`, the survival was inactive: 71%.

For `CCOC(=O)c1c(C)oc2nc(C)nc(NCc3ccc(OC)cc3OC)c12`, the survival was inactive: 97%.

Turning to `O=C(CSc1nncn2c1cc1sccc12)Nc1ccc(Br)cc1F`, the survival was inactive: 61%.

Regarding `COC(=O)c1cccnc1-n1c(=O)c2cccnc2n(CC(=O)Nc2ccccc2F)c1=O`, the survival was inactive: 86%.

Consider `Nc1ccc(N2CCN(c3ncc(C(F)(F)F)cc3Cl)CC2)c(C(F)(F)F)c1`, for which the survival is active: -5%.

Regarding `O=C(NCc1ccc(Cl)cc1)C(=O)NCC(c1cccs1)S(=O)(=O)c1cccs1` (stereo not given), the survival is inactive: 90%.

In the case of `CCN(CC)C(=O)CSc1nc(-c2ccco2)cc(C(F)(F)F)c1C#N`, the survival was inactive: 76%.

Consider `O=C(C1CCCCC1)N(Cc1nc2sc3c(c2c(=O)[nH]1)CCCC3)Cc1cccs1`, for which the survival was inactive: 66%.

For `CCOc1ccccc1NC(=O)C1CCN(S(=O)(=O)c2ccc3c(c2)CC(C)N3C(C)=O)CC1` (stereo not given), the survival was inactive: 88%.

As for `CCOc1ccc(Cn2c(CNS(=O)(=O)c3ccc(Cl)s3)nc3cccnc32)cc1`, the survival was inactive: 102%.

On to `COc1cccc(N2CCN(S(=O)(=O)c3ccc(-n4cnnn4)cc3)CC2)c1`, for which the survival was inactive: 115%.

Turning to `COc1ccc2c(C)cc(SCC(=O)Nc3nsc(-c4ccccc4C)n3)nc2c1`, the survival is active: 35%.

In the case of `CCOC(=O)c1ccccc1NC(=O)Cn1c(=O)n(-c2cccc(C)c2)c(=O)c2c1c1cc(C)ccc1n2C`, the survival is inactive: 68%.

As for `O=C(NCC(c1ccc2c(c1)OCO2)N1CCOCC1)c1cccc(Cl)c1` (stereo not given), the survival was inactive: 84%.

Consider `COc1cc(C2C(C(=O)Nc3ccccc3C)=C(C)Nc3ncnn32)ccc1OCC(N)=O` (stereo not given), for which the survival is inactive: 82%.

Take `CC(C)(C#N)Nn1cnnc1`: the survival is inactive: 101%.

As to `COc1ccc(-n2ncc(C(=O)NCCc3ccsc3)c2C2CCN(C(=O)OC(C)(C)C)CC2)cc1`, the survival is inactive: 75%.
